Some of the results follow.
B1: PhoQ; a variant is named by its letters at X, in order, P23837 (parent)
chain: MKKLLRLFFPLSLRVRFLLATAAVVLVLSLAYGMVALIGYSVSFDKTTFRLLRGESNLFYTLAKWENNKLHVELPENIDKQSPTMTLIYDENGQLLWAQRDVPWLMKMIQPDWLKSNGFHEIEADVNDTSLLLSGDHSIQQQLQEVREDDDDAEMTHSVAVNVYPATSRMPKLTIVVVDTIPVELKSSYMVWSWFIYVLSANLLLVIPLLWVAAWWSLRPIEALAKEVRELEEHNRELLNPATTRELTSLVRNLNRLLKSERERYDKYRTTLTDLTHSLKTPLXXLQXXLRSLRSEKMSVSDAEPVMLEQISRISQQIGYYLHRASMRGGTLLSRELHPVAPLLDNLTSALNKVYQRKGVNISLDISPEISFVGEQNDFVEVMGNVLDNACKYCLEFVEISARQTDEHLYIVVEDDGPGIPLSKREVIFDRGQRVDTLRPGQGVGLAVAREITEQYEGKIVAGESMLGGARMEVIFGRQHSAPKDE

Variants of: B1
Assay: enrichment ratio after two sorts for PhoP signalling (ratio (wild type AVST 3.29)); higher = more functional
Details: with PhoP (E. coli)

YKVD and RTPR cannot be ordered by enrichment ratio: at most 0.25 for the first, at most 0.25 for the second.

MEGK and EASK cannot be ordered by enrichment ratio: at most 0.25 for the first, at most 0.25 for the second.

Going from KQCW to TVAV, the enrichment ratio rises from at most 0.25 to 6.64.

QIQL and KTKS cannot be ordered by enrichment ratio: at most 0.25 for the first, at most 0.25 for the second.

Going from MCDS to METI, the enrichment ratio rises from at most 0.25 to 6.64.

LRAA and RPSK cannot be ordered by enrichment ratio: at most 0.25 for the first, at most 0.25 for the second.

SGTE and SPDC cannot be ordered by enrichment ratio: at most 0.25 for the first, at most 0.25 for the second.

GMFE and LFVC cannot be ordered by enrichment ratio: at most 0.25 for the first, at most 0.25 for the second.

WSAS and IHDK cannot be ordered by enrichment ratio: at most 0.25 for the first, at most 0.25 for the second.

SHGL and TRYN cannot be ordered by enrichment ratio: at most 0.25 for the first, at most 0.25 for the second.

First: LQIV
Second: AIMM
The enrichment ratio of the first is lower: at most 0.25 for the first, 35.5 for the second.

RSIQ and HRTH cannot be ordered by enrichment ratio: at most 0.25 for the first, at most 0.25 for the second.

SRMP and RFWF cannot be ordered by enrichment ratio: at most 0.25 for the first, at most 0.25 for the second.

GMGC and RYRI cannot be ordered by enrichment ratio: at most 0.25 for the first, at most 0.25 for the second.

TNRD and RSVM cannot be ordered by enrichment ratio: at most 0.25 for the first, at most 0.25 for the second.

VNIG and FMAA cannot be ordered by enrichment ratio: at most 0.25 for the first, at most 0.25 for the second.

DFVW and HFNI cannot be ordered by enrichment ratio: at most 0.25 for the first, at most 0.25 for the second.

Compared with AIVF, LLDG is lower in enrichment ratio: 2.34 for the first, at most 0.25 for the second.

TDDN and QMPE cannot be ordered by enrichment ratio: at most 0.25 for the first, at most 0.25 for the second.

GQRW and LKRK cannot be ordered by enrichment ratio: at most 0.25 for the first, at most 0.25 for the second.

Going from TNTV to FLIY, the enrichment ratio falls from 10.2 to at most 0.25.

GDKQ and YYGW cannot be ordered by enrichment ratio: at most 0.25 for the first, at most 0.25 for the second.

QVHT and KQFI cannot be ordered by enrichment ratio: at most 0.25 for the first, at most 0.25 for the second.

Going from DYNK to STLW, the enrichment ratio rises from at most 0.25 to 3.71.

KPEY and ENEH cannot be ordered by enrichment ratio: at most 0.25 for the first, at most 0.25 for the second.

AWDA and PTCG cannot be ordered by enrichment ratio: at most 0.25 for the first, at most 0.25 for the second.

KSRF and IFDD cannot be ordered by enrichment ratio: at most 0.25 for the first, at most 0.25 for the second.

DFQG and FYKP cannot be ordered by enrichment ratio: at most 0.25 for the first, at most 0.25 for the second.

SFWK and GIFY cannot be ordered by enrichment ratio: at most 0.25 for the first, at most 0.25 for the second.

HFDV and LCHY cannot be ordered by enrichment ratio: at most 0.25 for the first, at most 0.25 for the second.

QWTC and LCGS cannot be ordered by enrichment ratio: at most 0.25 for the first, at most 0.25 for the second.

RSDK and ACQG cannot be ordered by enrichment ratio: at most 0.25 for the first, at most 0.25 for the second.

KNND and DEPG cannot be ordered by enrichment ratio: at most 0.25 for the first, at most 0.25 for the second.

NYNM and WVNW cannot be ordered by enrichment ratio: at most 0.25 for the first, at most 0.25 for the second.

LMPV and HGDT cannot be ordered by enrichment ratio: at most 0.25 for the first, at most 0.25 for the second.

YHCQ and HDDM cannot be ordered by enrichment ratio: at most 0.25 for the first, at most 0.25 for the second.

LEPQ and YYGL cannot be ordered by enrichment ratio: at most 0.25 for the first, at most 0.25 for the second.

FPFI and SCHM cannot be ordered by enrichment ratio: at most 0.25 for the first, at most 0.25 for the second.

NWIS and LFKY cannot be ordered by enrichment ratio: at most 0.25 for the first, at most 0.25 for the second.

SKCW and LYHM cannot be ordered by enrichment ratio: at most 0.25 for the first, at most 0.25 for the second.

EKPP and ENLN cannot be ordered by enrichment ratio: at most 0.25 for the first, at most 0.25 for the second.

GRYP and ILCF cannot be ordered by enrichment ratio: at most 0.25 for the first, at most 0.25 for the second.

QFEW and MYEP cannot be ordered by enrichment ratio: at most 0.25 for the first, at most 0.25 for the second.

YEHL and YCVL cannot be ordered by enrichment ratio: at most 0.25 for the first, at most 0.25 for the second.

WQHL and HNYK cannot be ordered by enrichment ratio: at most 0.25 for the first, at most 0.25 for the second.

KYLC and PWKL cannot be ordered by enrichment ratio: at most 0.25 for the first, at most 0.25 for the second.

Going from NELG to YHWK, the enrichment ratio falls from 2.34 to at most 0.25.

NWRP and KRQN cannot be ordered by enrichment ratio: at most 0.25 for the first, at most 0.25 for the second.

NGIN and DIAI cannot be ordered by enrichment ratio: at most 0.25 for the first, at most 0.25 for the second.

DSEC and HMKA cannot be ordered by enrichment ratio: at most 0.25 for the first, at most 0.25 for the second.

SQEM and HLMW cannot be ordered by enrichment ratio: at most 0.25 for the first, at most 0.25 for the second.

WYKG and GWKH cannot be ordered by enrichment ratio: at most 0.25 for the first, at most 0.25 for the second.

Compared with MHRM, SAGN is higher in enrichment ratio: at most 0.25 for the first, 8.51 for the second.

HKGT and ECAW cannot be ordered by enrichment ratio: at most 0.25 for the first, at most 0.25 for the second.

QLGW and QICT cannot be ordered by enrichment ratio: at most 0.25 for the first, at most 0.25 for the second.

GDKD and TRRS cannot be ordered by enrichment ratio: at most 0.25 for the first, at most 0.25 for the second.

GTPK and KPPR cannot be ordered by enrichment ratio: at most 0.25 for the first, at most 0.25 for the second.

KMPW and QSIG cannot be ordered by enrichment ratio: at most 0.25 for the first, at most 0.25 for the second.

Compared with IYSL, RNIW is lower in enrichment ratio: 1.11 for the first, at most 0.25 for the second.

KFAW and ITRN cannot be ordered by enrichment ratio: at most 0.25 for the first, at most 0.25 for the second.

EDSS and FAKE cannot be ordered by enrichment ratio: at most 0.25 for the first, at most 0.25 for the second.

First: RPSN
Second: STVQ
The enrichment ratio of the first is lower: at most 0.25 for the first, 12 for the second.

QFMY and RTVI cannot be ordered by enrichment ratio: at most 0.25 for the first, at most 0.25 for the second.

HDAS and QSNP cannot be ordered by enrichment ratio: at most 0.25 for the first, at most 0.25 for the second.

Compared with FYVP, VSAF is higher in enrichment ratio: at most 0.25 for the first, 0.399 for the second.

LFKL and VPPC cannot be ordered by enrichment ratio: at most 0.25 for the first, at most 0.25 for the second.

Compared with AMMS, DRGN is lower in enrichment ratio: 1.12 for the first, at most 0.25 for the second.

WMHY and QARE cannot be ordered by enrichment ratio: at most 0.25 for the first, at most 0.25 for the second.

IQNH and TGLP cannot be ordered by enrichment ratio: at most 0.25 for the first, at most 0.25 for the second.

HEGT and IHRR cannot be ordered by enrichment ratio: at most 0.25 for the first, at most 0.25 for the second.

FRKE and FHVW cannot be ordered by enrichment ratio: at most 0.25 for the first, at most 0.25 for the second.

First: AGYL
Second: KECV
The enrichment ratio of the first is higher: 4.28 for the first, at most 0.25 for the second.

ALHC and RLEH cannot be ordered by enrichment ratio: at most 0.25 for the first, at most 0.25 for the second.

KGFV and TDCD cannot be ordered by enrichment ratio: at most 0.25 for the first, at most 0.25 for the second.

HKWF and IWAS cannot be ordered by enrichment ratio: at most 0.25 for the first, at most 0.25 for the second.

NSYW and GYHK cannot be ordered by enrichment ratio: at most 0.25 for the first, at most 0.25 for the second.

GELE and PICE cannot be ordered by enrichment ratio: at most 0.25 for the first, at most 0.25 for the second.

LMIA and HSIF cannot be ordered by enrichment ratio: at most 0.25 for the first, at most 0.25 for the second.

QRFP and DGCF cannot be ordered by enrichment ratio: at most 0.25 for the first, at most 0.25 for the second.

RIWT and KVVE cannot be ordered by enrichment ratio: at most 0.25 for the first, at most 0.25 for the second.

PFYD and LIVT cannot be ordered by enrichment ratio: at most 0.25 for the first, at most 0.25 for the second.

Compared with TKCD, LATS is lower in enrichment ratio: 21.6 for the first, at most 0.25 for the second.

PADI and VIQW cannot be ordered by enrichment ratio: at most 0.25 for the first, at most 0.25 for the second.

DTAI and KDYF cannot be ordered by enrichment ratio: at most 0.25 for the first, at most 0.25 for the second.

Going from SNMI to YQVL, the enrichment ratio falls from 19.8 to at most 0.25.

IGCW and FIVQ cannot be ordered by enrichment ratio: at most 0.25 for the first, at most 0.25 for the second.

Going from SCAS to HQFV, the enrichment ratio falls from 11 to at most 0.25.

KTCV and KVPQ cannot be ordered by enrichment ratio: at most 0.25 for the first, at most 0.25 for the second.

Going from KLSQ to SNIG, the enrichment ratio rises from at most 0.25 to 2.85.

YWAF and VVGL cannot be ordered by enrichment ratio: at most 0.25 for the first, at most 0.25 for the second.

RIVW and NIFI cannot be ordered by enrichment ratio: at most 0.25 for the first, at most 0.25 for the second.

QKPF and HAFW cannot be ordered by enrichment ratio: at most 0.25 for the first, at most 0.25 for the second.

First: FFGY
Second: QHYD
The enrichment ratio of the first is lower: at most 0.25 for the first, 6.87 for the second.

Going from GLTA to FSCE, the enrichment ratio rises from at most 0.25 to 2.81.

Compared with RMPM, DSHF is lower in enrichment ratio: 1.21 for the first, 0.525 for the second.

KQHF and KYPF cannot be ordered by enrichment ratio: at most 0.25 for the first, at most 0.25 for the second.

TSEY and NQMR cannot be ordered by enrichment ratio: at most 0.25 for the first, at most 0.25 for the second.

In the case of IDLQ, the enrichment ratio is reported as at most 0.25.

Source: a collection of fitness landscapes (doi:10.1126/science.1257360)
